The campaign covered roughly 310,000 compounds. About 14,000 (4.5%) showed an effect of 50% or more. Effects have a minus sign here. The list shows a part of the results.
What follows are compounds tested against human ether-à-go-go-related gene (hERG) potassium channel (human, UniProt Q12809) (assay: primary screen, population patch clamp on CHO cells stably expressing hERG).
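Also: peak tail current of the secondary pulse compared with the same well before compound.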

human ether-à-go-go-related gene (hERG) potassium channel, sequence (Q12809 whole entry, looked up): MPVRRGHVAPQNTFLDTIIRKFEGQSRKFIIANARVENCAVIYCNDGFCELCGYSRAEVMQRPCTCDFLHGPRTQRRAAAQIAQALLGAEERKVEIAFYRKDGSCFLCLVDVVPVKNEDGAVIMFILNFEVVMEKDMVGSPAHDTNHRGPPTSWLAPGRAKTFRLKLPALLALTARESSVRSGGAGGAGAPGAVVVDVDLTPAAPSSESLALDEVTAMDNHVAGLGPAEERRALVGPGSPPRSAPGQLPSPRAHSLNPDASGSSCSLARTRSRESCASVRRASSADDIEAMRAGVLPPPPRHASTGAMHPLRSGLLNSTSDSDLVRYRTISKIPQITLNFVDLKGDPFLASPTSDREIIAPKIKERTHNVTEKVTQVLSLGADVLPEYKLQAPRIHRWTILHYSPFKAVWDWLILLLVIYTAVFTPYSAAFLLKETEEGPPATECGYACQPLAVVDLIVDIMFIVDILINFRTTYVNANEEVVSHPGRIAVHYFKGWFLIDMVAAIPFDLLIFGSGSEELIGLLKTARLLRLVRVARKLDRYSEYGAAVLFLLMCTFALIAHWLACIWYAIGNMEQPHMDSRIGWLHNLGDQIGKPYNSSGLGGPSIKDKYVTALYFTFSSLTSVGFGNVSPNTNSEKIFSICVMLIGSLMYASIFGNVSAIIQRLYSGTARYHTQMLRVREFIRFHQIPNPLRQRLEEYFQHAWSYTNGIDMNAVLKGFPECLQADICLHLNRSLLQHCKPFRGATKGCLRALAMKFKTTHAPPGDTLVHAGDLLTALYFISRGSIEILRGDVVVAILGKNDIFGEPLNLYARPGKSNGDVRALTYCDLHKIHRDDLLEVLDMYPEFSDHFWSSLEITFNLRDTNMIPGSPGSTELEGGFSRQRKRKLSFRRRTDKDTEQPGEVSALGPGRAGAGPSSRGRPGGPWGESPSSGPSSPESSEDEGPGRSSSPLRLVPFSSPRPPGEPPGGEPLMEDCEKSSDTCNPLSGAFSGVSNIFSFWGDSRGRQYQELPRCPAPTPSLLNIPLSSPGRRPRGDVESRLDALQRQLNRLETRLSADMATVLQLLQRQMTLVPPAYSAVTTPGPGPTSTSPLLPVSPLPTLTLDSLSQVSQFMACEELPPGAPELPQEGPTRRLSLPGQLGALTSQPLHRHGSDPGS

SMILES | hERG current change (%, negative = inhibition) at 10uM
COc1ccc(CCc2nc(C)ccc2O)cc1.Cl | 9.9%
c1ccc2c(c1)nc(NCc1ccc3c(c1)OCO3)n2CCN1CCOCC1 | -66.8%
O=C(NCc1cccs1)C1CCC(CNS(=O)(=O)c2cccc3nsnc23)CC1 (stereo not shown) | 3.29%
COc1ccccc1C(OC(=O)c1ccco1)C(=O)NCc1ccc(F)cc1 (stereo not shown) | -13.9%
C/C(CC(=O)Nc1cccc(Cl)c1C)=N\NC(=O)C(=O)NCC(C)C | -20%
CN1CCN(S(=O)(=O)c2cccc(C(=O)NCCOc3ccccc3F)c2)CC1 | -15.4%
COc1ccccc1CN1CC(C(=O)N2CCC(OC)CC2)CCC1=O (stereo not shown) | 6.45%
CCN(CC)CCN1C(=O)c2oc3ccccc3c(=O)c2C1c1ccc(C)cc1 (stereo not shown) | -26.8%
O=C(CNC(=O)Cc1ccccc1)NCC(=O)OCc1ccc(C(=O)c2ccccc2)cc1 | -5.33%
Cn1cc(P(=S)(N2CCOCC2)N2CCOCC2)cc1P(=S)(N1CCOCC1)N1CCOCC1 | 17.6%
CC(=O)Cc1cc2cc([N+](=O)[O-])ccc2oc1=O | 2.29%
CCc1cc(C(=O)N2CCCC(CNC(=O)c3ccc(-c4ccccc4)cc3)C2)no1 (stereo not shown) | -58.1%
Cc1ccc(OC(C)C(=O)N2CCc3ccccc32)cc1 (stereo not shown) | 10.7%
CCOC(=O)c1ccc(NC(=O)c2nc[nH]c2C(=O)NCc2ccccc2)cc1 | 1.22%
CCOCc1nnc(NC(=O)c2ccc(NC(C)=O)cc2)s1 | 45.9%
CCN(c1cc(C)cc(C)c1)S(=O)(=O)c1nnc(NC(=O)C(C)C)s1 | 9.34%
CNC(=S)N(CCc1c(C)[nH]c2ccc(Cl)cc12)Cc1cccs1 | -17%
CCCSc1nnc(NC(=O)c2ccco2)s1 | 2.42%
Cn1c(Sc2ccccc2Cl)c(C=O)c2ccccc21 | 3.6%
O=C(C[n+]1cc(-c2ccc(Cl)cc2)n2c1CCCCC2)c1ccccc1.[Br-] | -12.5%
CCOC(=O)c1c(NC(=O)COc2ccc3ccc(=O)oc3c2)sc(C(=O)N(C)C)c1C | 20.9%
CN(C)/C=N/c1sc2c(c1C#N)CCCCC2 | -9.89%
C=CCn1c(SCC(N)=O)nc(C)cc1=O | 18.4%
Cc1cc(C(F)(F)F)c(C#N)c(SCC(=O)Nc2nc3ccccc3s2)n1 | -16.1%
Cc1nnc(SCc2ccccc2)n1N | 8.61%
